Data published in the supplement of paper PMC10126150.
Values marked as one replicate rest on one cluster of the flow cell; about a third of the high ones do not repeat.

Tested on: ATP
Experiment: switch fluorescence ratio, 500 uM ATP over buffer (Cy3 cluster intensity, sum of 5 cycles each) (fold (ratio)); higher = stronger signal-on switching upon ATP binding; sequences stand for … in TCGTCGGCAGCGTCAGATGTGTATAAGAGACAGTTTTTTTTTTTTTTTTTTTTTTTTT…TC
Conditions: aptamer strand: ATP DNA aptamer (quencher-CACCTGGGGGAGTATTGCGGAGGAAGG + anchor), 100 nM annealed; ATP concentration: 500 uM; one replicate
In short: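 Per cluster, summed Cy3 intensity from the target cycles was divided by that from the buffer cycles to give the fluorescence ratio, then averaged per switch-domain sequence. Clusters outside 100-1000 RFU were excluded. The Cy3-labelled switching-strand clusters, on a modified Illumina MiSeq flow-cell, were annealed to 100 nM quencher-labelled ATP aptamer and imaged in selection buffer, then after 15 min with 500 uM ATP at 22 °C, for five cycles with NaOH stripping and re-annealing between them.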
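Further: ATP exposure 15 min at 22 °C before imaging.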

| Sequence | switch fluorescence ratio |
| --- | --- |
| ACTTTATAAT | 1.04 |
| GGGGAAGCC | 1.02 |
| TAGGAAACAG | 1.02 |
| TGTGGAGAAC | 1.06 |
| TCCCCATAGT | 1.1 |
| GAGGGTATGC | 0.98 |
| ATGCCAGAGC | 1 |
| CAACGCTAAC | 3.68 |
| CCTTCTAATA | 1.47 |
| AATTAGTCGT | 0.998 |
| GATTGCAGT | 1.01 |
| ACCACGGGA | 1.05 |
| TTCCTCATAT | 1.12 |
| GTATTTAGAG | 0.987 |
| TTATTGTAGT | 0.988 |
| AAGGCTGGAA | 1.01 |
| TGAATACTCA | 1.17 |
| GGCCTAAGAA | 0.963 |
| CAGTCTTTCT | 1.01 |
| ACATCATGGT | 0.995 |
| ATGCTCAGAC | 1 |
| GGCGATCCGA | 0.977 |
| AGTTGCGGAA | 0.999 |

| Sequence | switch fluorescence ratio |
| --- | --- |
| AGTGTTATCG | 0.977 |
| TTATACTTCC | 1.99 |
| CGTCCCATTA | 1.54 |
| GCCGCCGGGA | 1.1 |
| CAGTGACGCG | 1.12 |
| TGTATTCACG | 1.02 |
| ACCGGTCTAG | 0.94 |
| GTATTCACCC | 1.02 |
| CTTGTCCGCC | 1.62 |
| TAATGCGTTA | 0.988 |
| TGTTGGCTAT | 0.975 |
| ACACTGCGTC | 1.06 |
| GTGGAGAGCC | 1 |
| CGTTTCATTC | 0.983 |
| TTAGGTTCA | 1.02 |
| TCAGCACGA | 1.04 |
| TCCGGGTGAC | 1.52 |
| CAAACTTGCT | 1.06 |
| CAGCGACTC | 1.31 |
| TCCACTAGTT | 0.982 |
| TATTACGTAA | 1.07 |
| TGAGATGAAC | 1 |
| TAGGAGGGCG | 1.03 |

| Sequence | switch fluorescence ratio |
| --- | --- |
| CCGGGTTCTG | 1.09 |
| TTCATCTTAG | 0.943 |
| CCGGAATGTT | 1.14 |
| ACTGCCCTTT | 1.03 |
| ACAGCCTCGA | 1.02 |
| AGAAGTAGAC | 0.993 |
| AGTAGGACC | 0.986 |
| CTTGGTTGCA | 1.02 |
| GCTACAATGC | 1.45 |
| CTGGGTTCGA | 0.955 |
| GTGCCCACAG | 0.978 |
| CAGATTGG | 0.981 |
| TTCGTGCGAC | 1 |
| ATCCGATAGG | 1.01 |
| TCGATAAGTG | 0.915 |
| TCGCGAACCC | 1.1 |
| CTCTTTCGGT | 1.01 |
| ATAAGTTACG | 1.09 |
| TAGATTTTAG | 0.997 |
| CGGCGGAGGT | 0.976 |
| AGCGCTGAC | 1.14 |
| GGCTGCGGTG | 0.978 |
| AAGCGTACGA | 1.02 |

| Sequence | switch fluorescence ratio |
| --- | --- |
| CTCGGTGCGG | 0.984 |
| ATATTTCTA | 0.988 |
| CAGAAAAACG | 1.03 |
| CAACAGACCT | 1.36 |
| CTAGGTGGTC | 1.03 |
| GTTGATTCCA | 1.01 |
| GCAGTTCCCG | 1.05 |
| TAGCGTTAA | 0.991 |
| GGAAACAAAG | 0.996 |
| GGCGACCGGA | 1.01 |
| TATAATGAG | 1.02 |
| GGCGTCGCGC | 1.03 |
| TGACATGGGC | 0.976 |
| TATCCCGATG | 1.01 |
| TGATTGAAGA | 0.931 |
| GTTATAACGA | 1.03 |
| TGCTTTTATC | 1.01 |
| TCTGTATTCA | 1 |
| GGTAACGGGA | 1.01 |
| GTGATAATCG | 1.04 |
| AGTTTTTGGA | 0.996 |
| GACCTCATAC | 2.18 |
| TTGTAATCAA | 0.998 |

| Sequence | switch fluorescence ratio |
| --- | --- |
| TATCACGTGG | 1.03 |
| AAACTTCCGT | 1.13 |
| CAATTGCACC | 1.04 |
| ACAGTATGTA | 0.964 |
| ACTGTATATG | 1.19 |
| CTGTGGCTAA | 1.03 |
| GGGCAGTTTG | 0.986 |
| ATACGTTAGT | 1.07 |
| GACTGAGGG | 0.991 |
| ATTTCCCTCG | 1.05 |
| CTTGCGTCAT | 1.07 |
| CGGTTCTTGG | 0.983 |
| AATGTGTATA | 0.951 |
| CATGGATATA | 1 |
| TCTTAAACTA | 1.04 |
| CGCTCACTCA | 1.79 |
| GAGGGCGAGG | 0.993 |
| ACGTCGAGTG | 0.996 |
| AAGTCTGCTG | 1.07 |
| GTGCGTTAAC | 1.03 |
| CTAGCGATA | 1.57 |
| TCTCGCAAAG | 1.04 |
| ACTGATTTGG | 1.01 |

| Sequence | switch fluorescence ratio |
| --- | --- |
| CGAGTAATTG | 1.11 |
| CCATTCTTAG | 1.03 |
| CAGTATCACT | 1 |
| AGAGTTGT | 1.02 |
| TTAGGACGGG | 0.953 |
| GCCGTTACG | 1 |
| GGCATTGTGC | 0.985 |
| TCATATGAAT | 1 |
| TTACCCGTTG | 0.977 |
| CTATCGGCTG | 1.05 |
| ATACCCGCCT | 1.06 |
| TGTGGAGGCT | 0.921 |
| CTTCAACGCC | 1.97 |
| GGTGTTCGAA | 0.97 |
| TTGTCCACTA | 0.98 |
| TTGTTGGGCG | 1.05 |
| CCTGATAACC | 1.04 |
| CTTAGTAGCT | 0.982 |
| TAACGTGCAG | 1 |
| CAGGTAACAA | 1.02 |
| AAATAAGAAC | 1.16 |
| GAAACAGATT | 1.03 |
| TTATAGCGGA | 0.976 |

| Sequence | switch fluorescence ratio |
| --- | --- |
| ATTAGATTC | 0.99 |
| TATACGTCGT | 1.01 |
| GTATGTCAAC | 0.998 |
| AATACCATTA | 1.02 |
| TTACGATGT | 0.965 |
| ATCTTTTTGA | 1.02 |
| GATAAGATTT | 1.04 |
| TCTCTTTCCT | 1.06 |
| ATGCGCGTGT | 1.02 |
| GGGCTGAGTG | 1.03 |
| GGCCAAGAGC | 0.962 |
| CGTGACATAA | 1.02 |
| GCTAAAGAAC | 0.996 |
| GAATCAGTCT | 0.997 |
| ATGTATGTTC | 0.959 |
| AAGCGAAGAG | 1 |
| GTCAGGCGGG | 0.989 |
| GGTCGAAGAA | 0.998 |
| AACTGGCCTC | 1.1 |
